Reference: paper PMC11247499, “2,8-Disubstituted-1,5-naphthyridines as Dual Inhibitors of Plasmodium falciparum Phosphatidylinositol-4-kinase and Hemozoin Formation with In Vivo Efficacy” (Journal of Medicinal Chemistry, 2024)
≈ marks a conversion by molar mass, not a printed value. Like-named read-outs stand apart in the source and are kept apart here.

Assays:
[1] = Plasma protein binding, human; assay type: in vitro ADME; conditions: read-out: PPB fu, human
[2] = tested on: P. falciparum Pf3D7 0087/N9; assay: animal or person; conditions: Plasmodium falciparum, in Mus musculus
pKa of piperidine N = assay type: physicochemical
[3] = Plasma protein binding, mouse; assay type: in vitro ADME; conditions: read-out: PPB fu, mouse
[4] = tested on: liver stage P. falciparum NF54
[5] = human
physchem [6] = assay: physchem
[7] = In vitro microsomal stability, mouse; assay type: in vitro ADME; conditions: pH 7.4; mouse liver microsomes; read-out: microsomal CLint, app mouse
[8] = tested on: P. falciparum Pf3D7 0087/N9; conditions: in vivo
physchem [9] = conditions: pH 7.4

SMILES	lag phase before the onset of action (P. falciparum 3D7)	log PRR (P. falciparum 3D7)	parasite clearance time (P. falciparum 3D7)	fraction unbound at 4 h, 5 µM [1]	EC50 [2] [µg/mL]	pKa of piperidine N (pKa of piperidine N)	fraction unbound at 4 h, 5 µM [3]	liver schizont activity at 1 μM [4]	Vd [5] [L/kg]	clearance [5] [mL/min/kg]	half-life ([5]; Terminal half-life) [h]	solubility (physchem [6]) [µM]	solubility (physchem [6]; pH 6.5) [µM]	CLint scaled at 1 µM [7] [mL/min/kg]	Kkill [8] [h⁻¹]	logD at 3 h (physchem [9])
FC(F)(F)c1ccc(-c2ccc3nccc(NC4CCNCC4)c3n2)cn1 [Compound 17, N-Piperidin-4-yl-6-[6-(trifluoromethyl)pyridin-3-yl]-1,5-naphthyridin-4-amine]	did not show any delay	3.9	around 40 h	0.3	0.0314 (≈ 0.0841 µM)	9.42	0.3	no activity	9.4	0.7	155	200 (≈ 74.7 µg/mL)	200 (≈ 74.7 µg/mL)	< 46	0.0292	0.81
CC1(C)CC(Nc2ccnc3ccc(-c4ccc(C(F)(F)F)nc4)nc23)CCN1 (stereo not drawn) [Compound 25, N-(2,2-Dimethylpiperidin-4-yl)-6-[6-(trifluoromethyl)pyridin-3-yl]-1,5-naphthyridin-4-amine]	–	–	–	–	–	8.98	–	–	–	–	–	–	–	–	–	1.41
FC(F)(F)c1ccc(-c2ccc3nccc(NC4CCNC5(CC5)C4)c3n2)cn1 (stereo not drawn) [Compound 26, N-(4-Azaspiro[2.5]octan-7-yl)-6-[6-(trifluoromethyl)pyridin-3-yl]-1,5-naphthyridin-4-amine]	–	–	–	–	–	7.99	–	–	–	–	–	200 (≈ 79.9 µg/mL)	–	–	–	1.53
